We go through 48 compounds from PubChem BioAssay AID1508642 (National Center for Advancing Translational Sciences (NCATS), 2021).

SMILES strings stand for the structures. About 200 (0.47%) of roughly 43,000 compounds were called active. Another 12% or so got no clear call; they are omitted. Calls follow the shape of the dose curve; as a rule, active = well fitted cell-killing curve with a large enough effect; inconclusive = small, poorly fitted or top-dose-only effect, or effect the other way; inactive = flat fitted curve, though single readings scatter. The list shows a part of the results.
% is scaled to controls: 0 for no effect and ±100 for the full control effect.

This assay is described as follows: Cell viability qHTS assay in S16 Pmp22-F2sN cells. Also: nearly all actives have a fitted effect of over 65% in size. Particulars: S16 Pmp22-F2sN Schwann cells viability, CellTiter-Glo, 24 h; series mostly up to 57.5 µM; activity change, negative = cytotoxicity: at the top concentration. In a few lines: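 Used to flag compounds lowering reporter output through toxicity, this quantitative HTS measures ATP-based CellTiter-Glo luminescence in S16 Pmp22-F2sN Schwann cells after 24 h compound exposure at 37C.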
Turning to `COc1ccccc1CNC(=O)C(=O)NCC(c1ccco1)S(=O)(=O)c1ccc(F)cc1` (stereo not drawn), the “activity change, negative = cytotoxicity” value is inactive: -13.4%.

Turning to `COc1cccc(N2CCN(C(=O)c3cnc4c(-c5ccc(F)cc5)c(C)nn4c3C)CC2)c1`, the “activity change, negative = cytotoxicity” value was inactive: -7.78%.

For the compound `COc1ccc(C(=O)Oc2c(Sc3ccccc3)c(C)nn2-c2ccccc2)c(OC)c1`, the “activity change, negative = cytotoxicity” value was inactive: 18.8%.

For the compound `CCN(CC)S(=O)(=O)c1ccc2c(c1)N(CC(=O)Nc1ccc(Cl)cc1)C(=O)C1CCCN21` (stereo not drawn), the “activity change, negative = cytotoxicity” value is inactive: 0.0942%.

For `CC(C)(C)c1ccc(C(=O)NCC(c2ccco2)S(=O)(=O)c2ccccc2)cc1` (stereo not drawn), the “activity change, negative = cytotoxicity” value is inactive: -28.7%.

With `COC(=O)c1ccccc1NS(=O)(=O)c1cc2c3c(c1)CC(=O)N3CCC2`, the “activity change, negative = cytotoxicity” value is inactive: -8.64%.

`Cn1cc(-c2cc3n(n2)CCC(=O)N3CCCC(=O)Nc2ccc(Cl)cc2)c2ccccc21`: the “activity change, negative = cytotoxicity” value was inactive: 12.7%.

With `CC(=O)N1CCCc2cc(S(=O)(=O)N(C)CC(=O)Nc3ccc(C(C)C)cc3)ccc21`, the “activity change, negative = cytotoxicity” value was inactive: -26.4%.

Take `CC(C)c1ccc(OCC(=O)Nc2ccc(S(=O)(=O)Nc3ncccn3)cc2)cc1`: the “activity change, negative = cytotoxicity” value is inactive: -0.528%.

On to `COc1ccc(NC(=O)Cn2ccn(-c3ccc(F)c(F)c3)c(=O)c2=O)cc1Cl`, for which the “activity change, negative = cytotoxicity” value is inactive: 0.484%.

Consider `COc1cccc(CNC(=O)c2sc3nc[nH]c(=O)c3c2C)c1`, for which the “activity change, negative = cytotoxicity” value is inactive: -4.48%.

As to `COc1ccc(CNC(=O)CCC2N=C3c4ccccc4N=C(SCC(=O)NCCc4ccc(OC)c(OC)c4)N3C2=O)cc1` (stereo not drawn), the “activity change, negative = cytotoxicity” value is inactive: -8.02%.

Take `CC(C)OC(=O)c1c(NC(=O)c2cccc(C(F)(F)F)c2)sc2c1CCCC2`: the “activity change, negative = cytotoxicity” value is inactive: 3.97%.

Take `O=C1CC(c2ccccc2)Sc2ccccc2N1Cc1ccccc1F` (stereo not drawn): the “activity change, negative = cytotoxicity” value is inactive: 12.2%.

Turning to `O=C(c1ccccc1Cl)n1nc(-c2ccco2)nc1NCc1cccs1`, the “activity change, negative = cytotoxicity” value was inactive: 8.72%.

As for `Cc1cccc(CNC(=O)c2cnc3c(-c4cccc(C)c4)c(C)nn3c2C)c1`, the “activity change, negative = cytotoxicity” value was inactive: -2.2%.

For `CCCCC(=O)N1c2ccccc2C(C)(c2ccccc2)CC1(C)C` (stereo not drawn), the “activity change, negative = cytotoxicity” value was inactive: -1.36%.

Turning to `COc1ccc(OC)c(CCNc2ncnc3onc(-c4ccc(Cl)cc4)c23)c1`, the “activity change, negative = cytotoxicity” value was inactive: 0.514%.

In the case of `CCc1ccc(S(=O)(=O)NCCc2cn3ccsc3n2)cc1`, the “activity change, negative = cytotoxicity” value was inactive: -0.368%.

`CC(=O)N1CCCc2cc(S(=O)(=O)N(C)CC(=O)Nc3cccc(Cl)c3C)ccc21`: the “activity change, negative = cytotoxicity” value is inactive: -21.8%.

As for `Cc1ccc(NC(=O)CSc2nc3c(oc4ccccc43)c(=O)n2Cc2ccco2)cc1F`, the “activity change, negative = cytotoxicity” value was inactive: 0.964%.

Take `Cc1nc(-n2nc(C)c(Cc3ccc(Cl)cc3)c2C)sc1C(=O)N1CCC(C)CC1`: the “activity change, negative = cytotoxicity” value is inactive: 7.33%.

As for `CCN(CC)c1ccc(NC(=O)COCc2cc(-c3ccc4c(c3)OCO4)on2)c(C)c1`, the “activity change, negative = cytotoxicity” value was inactive: -5.83%.

As to `Cc1ccccc1Cn1c2ccccc2c2cnn(CC(=O)NCc3cccc(Cl)c3)c(=O)c21`, the “activity change, negative = cytotoxicity” value is inactive: 7.51%.

In the case of `CCOC(=O)c1ccc(CN(Cc2ccc(F)cc2)S(=O)(=O)c2ccc(F)c(C(=O)Nc3cc(Cl)ccc3OC)c2)cc1`, the “activity change, negative = cytotoxicity” value is inactive: 4.06%.

As to `Cc1ccc(N2CCN(C(=O)c3c(C)oc4ncn(C)c(=O)c34)CC2)c(C)c1`, the “activity change, negative = cytotoxicity” value is inactive: -4.58%.

With `CCN(c1ncnc2c1cnn2-c1ccc(C)cc1)C1CCCCC1`, the “activity change, negative = cytotoxicity” value was inactive: 8.9%.

`CCOC(=O)c1cccc(NC(=O)c2cc3sccc3n2Cc2ccc(Cl)cc2)c1`: the “activity change, negative = cytotoxicity” value was inactive: 2.56%.

For the compound `CCOc1ccc(CCNC(=O)CCc2cn(Cc3ccccc3F)c3ccccc23)cc1OCC`, the “activity change, negative = cytotoxicity” value is inactive: 21.4%.

For the compound `COCCn1c(=O)[nH]c2cc(C(=O)NCc3ccccc3Cl)ccc2c1=O`, the “activity change, negative = cytotoxicity” value was inactive: 9%.

Regarding `CCOc1ccc(NC(=O)c2c(Nc3ccc(OC)cc3OC)sc(C(=O)c3ccc(Cl)cc3)c2N)cc1`, the “activity change, negative = cytotoxicity” value was inactive: -5.56%.

In the case of `CCOc1ccc(NC(=O)CSc2nc(-c3ccc(OC)cc3)nc3c2Cc2c(CO)cnc(C)c2O3)cc1`, the “activity change, negative = cytotoxicity” value was inactive: 20.7%.

Regarding `CCOC(=O)c1cc(S(=O)(=O)NCc2ccccc2)[nH]n1`, the “activity change, negative = cytotoxicity” value is inactive: 0.303%.

For the compound `O=C(Cn1c(=O)ccc2cc(S(=O)(=O)N3CCCC3)ccc21)NCc1ccc(Cl)cc1`, the “activity change, negative = cytotoxicity” value is inactive: 6.73%.

For the compound `O=C(c1ccc(Cl)cc1)N1CCC(c2ccncc2)CC1`, the “activity change, negative = cytotoxicity” value was inactive: -10.6%.

Turning to `CCN(CC)S(=O)(=O)c1ccc2nc(NC(=O)c3cccnc3)sc2c1`, the “activity change, negative = cytotoxicity” value was inactive: 3.58%.

In the case of `COc1cc(-c2noc(-c3ccc(N4CCN(C)CC4)c([N+](=O)[O-])c3)n2)cc(OC)c1OC`, the “activity change, negative = cytotoxicity” value was inactive: 14.6%.

`CCC(CO)NC(=O)C(=O)Nc1c2c(nn1-c1ccc(F)cc1)CSC2` (stereo not drawn): the “activity change, negative = cytotoxicity” value was inactive: -5.72%.

`Cc1ccc(NC(=O)C2CCCN(c3nnc(C)c4c(C)n(-c5ccccc5)nc34)C2)c(Cl)c1` (stereo not drawn): the “activity change, negative = cytotoxicity” value was inactive: -3.71%.

On to `O=[N+]([O-])c1cc(-c2nc(-c3ccccc3)no2)ccc1N1CCCCC1`, for which the “activity change, negative = cytotoxicity” value is inactive: 24.3%.

`COc1ccc(C(=O)OCc2cc(=O)n3nc(-c4cccs4)sc3n2)cc1`: the “activity change, negative = cytotoxicity” value was inactive: -3.85%.

With `CCC(Cn1nnc2ccccc2c1=O)NC(=O)Nc1cccc(C)c1C` (stereo not drawn), the “activity change, negative = cytotoxicity” value is inactive: -2.15%.

In the case of `O=C(Cn1c(=O)n(Cc2ccco2)c(=O)c2ccccc21)Nc1ccc(Cl)cc1Cl`, the “activity change, negative = cytotoxicity” value was inactive: 25.4%.

Consider `CC1=C(C(=O)Nc2ccccc2)C(c2ccncc2)n2nc(SCc3ccccc3Cl)nc2N1` (stereo not drawn), for which the “activity change, negative = cytotoxicity” value was inactive: 9.11%.

On to `Cc1ccc2nc(Nc3cccc(Cl)c3C)c(-n3nc(C)cc3C)nc2c1`, for which the “activity change, negative = cytotoxicity” value was inactive: -0.607%.

As to `CC(C)CN(C(=O)c1cccc(S(=O)(=O)N2CCCCC2)c1)C1CCS(=O)(=O)C1` (stereo not drawn), the “activity change, negative = cytotoxicity” value was inactive: -2.08%.

Regarding `CCOC(=O)c1ccc(NC(=O)Cn2c(=O)n(-c3ccc(C)cc3)c(=O)c3c2cnn3C)cc1`, the “activity change, negative = cytotoxicity” value is inactive: 18.1%.

With `Cc1ccccc1NC(=O)Cn1c(SCC(=O)Nc2ccc(F)cc2)nc2ccccc21`, the “activity change, negative = cytotoxicity” value is inactive: 1.77%.
